B1: 170 (protein)
chain: HGEGTFTSDKSKQLAKRLVREFIEWLIEGGHSSGKPPPKGGGGGGGSGGGGSGGGGSA[… human IgG4 Fc with changes …]GGGSGSAHPIPDSSPLLQFGGQVRQRYLYTDDACQTEAHLEIREDGTVGGAADQSPESLLQLKALKPGVIQILGVKTSRFLCQRPDGALYGSLHFDPEACSFRELLLEDGYNVYQSEAHGLPLHLPGCKSPHRDPAPRGPARFLPLPGLPPAPPEPPGILAPQPPDVGSSDPLSMVGSQGRSPSYAS
modifications: Fusion Protein
B2: 172 (protein)
chain: HGEGTFTSDKSKQLAKRLVRLFIEWLIKGGHSSGKPPPSGGGGGGGSGGGGSGGGGSA[… human IgG4 Fc with changes …]GGGSGSAHPIPDSSPLLQFGGQVRQRYLYTDDACQTEAHLEIREDGTVGGAADQSPESLLQLKALKPGVIQILGVKTSRFLCQRPDGALYGSLHFDPEACSFRELLLEDGYNVYQSEAHGLPLHLPGCKSPHRDPAPRGPARFLPLPGLPPAPPEPPGILAPQPPDVGSSDPLSMVGSQGRSPSYAS
modifications: Fusion Protein
B3: 175 (protein)
chain: HGEGTFTSDKSKQLAKEAVQLFIEWLLAGGPKKIRYSGGGGGGGSGGGGSGGGGSA[… human IgG4 Fc with changes …]GGGSGSAHPIPDSSPLLQFGGQVRQRYLYTDDACQTEAHLEIREDGTVGGAADQSPESLLQLKALKPGVIQILGVKTSRFLCQRPDGALYGSLHFDPEACSFRELLLEDGYNVYQSEAHGLPLHLPGCKSPHRDPAPRGPARFLPLPGLPPAPPEPPGILAPQPPDVGSSDPLSMVGSQGRSPSYAS
modifications: Fusion Protein
B4: 176 (protein)
chain: HGEGTFTSDKSKQLAERAVQLFIEWLLAGGPKKIRYSGGGGGGGSGGGGSGGGGSA[… human IgG4 Fc with changes …]GGGSGSAHPIPDSSPLLQFGGQVRQRYLYTDDACQTEAHLEIREDGTVGGAADQSPESLLQLKALKPGVIQILGVKTSRFLCQRPDGALYGSLHFDPEACSFRELLLEDGYNVYQSEAHGLPLHLPGCKSPHRDPAPRGPARFLPLPGLPPAPPEPPGILAPQPPDVGSSDPLSMVGSQGRSPSYAS
modifications: Fusion Protein
B5: 177 (protein)
chain: HGEGTFTSDKSKQLAKRAVQLFIEWLLAGGPKKIRYSGGGGGGGSGGGGSGGGGSA[… human IgG4 Fc with changes …]GGGSGSAHPIPDSSPLLQFGGQVRQRYLYTDDACQTEAHLEIREDGTVGGAADQSPESLLQLKALKPGVIQILGVKTSRFLCQRPDGALYGSLHFDPEACSFRELLLEDGYNVYQSEAHGLPLHLPGCKSPHRDPAPRGPARFLPLPGLPPAPPEPPGILAPQPPDVGSSDPLSMVGSQGRSPSYAS
modifications: Fusion Protein
B6: 180 (protein)
chain: HGEGTFTSDKSKQLAERLVQLFIEWLLAGGPKKIRYSGGGGGGGSGGGGSGGGGSA[… human IgG4 Fc with changes …]GGGSGSAHPIPDSSPLLQFGGQVRQRYLYTDDACQTEAHLEIREDGTVGGAADQSPESLLQLKALKPGVIQILGVKTSRFLCQRPDGALYGSLHFDPEACSFRELLLEDGYNVYQSEAHGLPLHLPGCKSPHRDPAPRGPARFLPLPGLPPAPPEPPGILAPQPPDVGSSDPLSMVGSQGRSPSYAS
modifications: Fusion Protein
B7: 181 (protein)
chain: HGEGTFTSDKSKQLAKRLAQEFIEWLIKGGHSSGKPPPKGGGGGGGSGGGGSGGGGSA[… human IgG4 Fc with changes …]GGGSGSAHPIPDSSPLLQFGGQVRQRYLYTDDACQTEAHLEIREDGTVGGAADQSPESLLQLKALKPGVIQILGVKTSRFLCQRPDGALYGSLHFDPEACSFRELLLEDGYNVYQSEAHGLPLHLPGCKSPHRDPAPRGPARFLPLPGLPPAPPEPPGILAPQPPDVGSSDPLSMVGSQGRSPSYAS
modifications: Fusion Protein
B8: 182 (protein)
chain: HGEGTFTSDKSKQLAERLVRLFIEWLIAGGHSSGKPPPKGGGGGGGSGGGGSGGGGSA[… human IgG4 Fc with changes …]GGGSGSAHPIPDSSPLLQFGGQVRQRYLYTDDACQTEAHLEIREDGTVGGAADQSPESLLQLKALKPGVIQILGVKTSRFLCQRPDGALYGSLHFDPEACSFRELLLEDGYNVYQSEAHGLPLHLPGCKSPHRDPAPRGPARFLPLPGLPPAPPEPPGILAPQPPDVGSSDPLSMVGSQGRSPSYAS
modifications: Fusion Protein
B9: 183 (protein)
chain: HGEGTFTSDKSKQLAERLVREFIEWLIAGGHSSGKPPPKGGGGGGGSGGGGSGGGGSA[… human IgG4 Fc with changes …]GGGSGSAHPIPDSSPLLQFGGQVRQRYLYTDDACQTEAHLEIREDGTVGGAADQSPESLLQLKALKPGVIQILGVKTSRFLCQRPDGALYGSLHFDPEACSFRELLLEDGYNVYQSEAHGLPLHLPGCKSPHRDPAPRGPARFLPLPGLPPAPPEPPGILAPQPPDVGSSDPLSMVGSQGRSPSYAS
modifications: Fusion Protein
B10: 184 (protein)
chain: HGEGTFTSDKSKQLAERLVKLFIEWLIAGGHSSGKPPPKGGGGGGGSGGGGSGGGGSA[… human IgG4 Fc with changes …]GGGSGSAHPIPDSSPLLQFGGQVRQRYLYTDDACQTEAHLEIREDGTVGGAADQSPESLLQLKALKPGVIQILGVKTSRFLCQRPDGALYGSLHFDPEACSFRELLLEDGYNVYQSEAHGLPLHLPGCKSPHRDPAPRGPARFLPLPGLPPAPPEPPGILAPQPPDVGSSDPLSMVGSQGRSPSYAS
modifications: Fusion Protein
B11: 185 (protein)
chain: HGEGTFTSDKSKQLAERLAREFIEWLIAGGHSSGKPPPKGGGGGGGSGGGGSGGGGSA[… human IgG4 Fc with changes …]GGGSGSAHPIPDSSPLLQFGGQVRQRYLYTDDACQTEAHLEIREDGTVGGAADQSPESLLQLKALKPGVIQILGVKTSRFLCQRPDGALYGSLHFDPEACSFRELLLEDGYNVYQSEAHGLPLHLPGCKSPHRDPAPRGPARFLPLPGLPPAPPEPPGILAPQPPDVGSSDPLSMVGSQGRSPSYAS
modifications: Fusion Protein
B12: 186 (protein)
chain: HGEGTFTSDKSKQLAERLAKLFIEWLIAGGHSSGKPPPKGGGGGGGSGGGGSGGGGSA[… human IgG4 Fc with changes …]GGGSGSAHPIPDSSPLLQFGGQVRQRYLYTDDACQTEAHLEIREDGTVGGAADQSPESLLQLKALKPGVIQILGVKTSRFLCQRPDGALYGSLHFDPEACSFRELLLEDGYNVYQSEAHGLPLHLPGCKSPHRDPAPRGPARFLPLPGLPPAPPEPPGILAPQPPDVGSSDPLSMVGSQGRSPSYAS
modifications: Fusion Protein
B13: 92 (protein)
chain: HGEGTFTSDLSIQLEEEAVRLFIEWLLATGPVSGAPPPSGGGGGGGSGGGGSGGGGSA[… human IgG4 Fc with changes …]GGGSGSAHPIPDSSPLLQFGGQVRQRYLYTDDACQTEAHLEIREDGTVGGAADQSPESLLQLKALKPGVIQILGVKTSRFLCQRPDGALYGSLHFDPEACSFRELLLEDGYNVYQSEAHGLPLHLPGCKSPHRDPAPRGPARFLPLPGLPPAPPEPPGILAPQPPDVGSSDPLSMVGSQGRSPSYAS
modifications: Fusion Protein
B14: 93 (protein)
chain: HGEGTFTSDLSIQLEEEAVQEFIEWLLATGPVSGAPPPSGGGGGGGSGGGGSGGGGSA[… human IgG4 Fc with changes …]GGGSGSAHPIPDSSPLLQFGGQVRQRYLYTDDACQTEAHLEIREDGTVGGAADQSPESLLQLKALKPGVIQILGVKTSRFLCQRPDGALYGSLHFDPEACSFRELLLEDGYNVYQSEAHGLPLHLPGCKSPHRDPAPRGPARFLPLPGLPPAPPEPPGILAPQPPDVGSSDPLSMVGSQGRSPSYAS
modifications: Fusion Protein

Each molecule was assayed against T1, Human GLP-1R (Homo sapiens, UniProt P43220) (assay: HTRF cAMP assay in HEK-293 cells, human GLP-1R).
T1 construct: expressed in transfected cells; host or cells: HEK-293
Assay type: cell-based
Description: Recombinant HEK-293 cells were grown in T175 culture flasks placed at 37° C. to near confluence in medium (DMEM with 10% FBS) and collected in 2 mL vials in cell culture medium containing 10% DMSO in concentrations of 1-5×10^7 cells/mL. Each vial contained 1.8 mL cell suspension. The vials were slowly frozen to −80° C. in an isopropanol chamber, and then transferred to liquid nitrogen for long term storage.
Prior to their use, frozen cells were thawed quickly at 37° C., washed with 20 mL cell buffer (1×HBSS; 20 mM HEPES, 0.1% BSA) and centrifuged for 5 minutes at 900 rpm. Cells were resuspended in assay buffer (cell buffer plus 2 mM IBMX) and adjusted to a cell density of 1×10^6 cells/mL. For measurement, 5 μL cell suspension (final 5×10^3 cells/well) and 5 μL of test compound were added to a well of a 384-well plate, followed by incubation for 30 minutes at room temperature. […] The cAMP content of cells was determined using a kit from Cisbio Corp. (cat. no. 62AM4PEC) based on Homogenous Time Resolved Fluorescence (HTRF).

T1 sequence (P43220 24-463): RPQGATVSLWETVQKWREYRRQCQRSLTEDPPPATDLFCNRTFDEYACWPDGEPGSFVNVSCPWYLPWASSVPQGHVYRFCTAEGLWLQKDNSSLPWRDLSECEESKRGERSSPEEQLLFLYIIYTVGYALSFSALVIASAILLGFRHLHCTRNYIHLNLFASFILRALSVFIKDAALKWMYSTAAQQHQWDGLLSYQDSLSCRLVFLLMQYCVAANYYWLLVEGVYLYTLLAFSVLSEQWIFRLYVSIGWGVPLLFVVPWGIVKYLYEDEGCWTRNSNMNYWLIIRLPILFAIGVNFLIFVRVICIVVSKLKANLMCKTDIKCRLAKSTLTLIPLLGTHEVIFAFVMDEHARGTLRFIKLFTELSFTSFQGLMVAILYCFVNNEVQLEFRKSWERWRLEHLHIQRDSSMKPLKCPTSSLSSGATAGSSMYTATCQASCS

Molecule	EC50 [nM]
B1	0.234
B2	0.254
B3	0.0909
B4	0.0718
B5	0.0486
B6	0.406
B7	0.137
B8	0.123
B9	0.0738
B10	0.216
B11	0.0138
B12	0.124
B13	0.0589
B14	0.0484

From US20230250147A1, “GLP-1R AGONISTIC PEPTIDES WITH REDUCED ACTIVITY” (SANOFI, priority 2020, published 2023)
